Test results published in PubChem BioAssay AID1346428 (National Center for Advancing Translational Sciences (NCATS), 2018).
“And” between values parts separate entries of the source, which are not always exact repeats. Equal values may be shown once. In all, about 48,000 compounds went through this assay and about 1,200 (2.5%) were called active. Another 2% or so got no clear call; they are omitted.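 The calls were made as follows: active = activation of at least 60% and not above a set upper limit (about 1 call in 100 departs from these limits); inconclusive = activation of 40% to 60%, or above that upper limit; inactive = activation under 40%.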 The list shows a part of the results.

target: Probable G-protein coupled receptor 32 (Homo sapiens) (UniProt O75388); experiment: qHTS for Agonists of Human Resolvin D1 Receptor DRV1; settings: CHO-K1 GPR32 beta-arrestin PathHunter luminescence, 90 min; at 76.9 µM; stronger effect = higher value; zero percent set by DMSO-only wells; also: 0% is about no effect
UniProt O75388, sequence (O75388 whole entry, looked up): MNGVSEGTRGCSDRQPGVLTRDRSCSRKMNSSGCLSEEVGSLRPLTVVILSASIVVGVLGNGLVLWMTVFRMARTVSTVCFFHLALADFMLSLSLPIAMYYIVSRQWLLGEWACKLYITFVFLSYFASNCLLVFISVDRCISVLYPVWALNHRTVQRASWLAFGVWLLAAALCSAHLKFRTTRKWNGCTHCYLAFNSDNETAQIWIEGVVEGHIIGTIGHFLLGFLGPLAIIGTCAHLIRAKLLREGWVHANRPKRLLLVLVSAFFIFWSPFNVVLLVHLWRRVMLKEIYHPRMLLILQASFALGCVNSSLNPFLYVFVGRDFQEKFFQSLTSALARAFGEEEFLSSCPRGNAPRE
Method in brief: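 CHO-K1 cells stably expressing ProLink-tagged GPR32 and Enzyme Activator-tagged beta-arrestin were seeded at 2,500 cells/well overnight, exposed to compounds for 90 min at 37 °C, then read by beta-Gal complementation chemiluminescence after 1 h detection reagent.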

SMILES | activation
COc1cccc2sc(N(Cc3cccnc3)C(=O)c3ccc(S(=O)(=O)N(C)C)cc3)nc12 | inactive: -22.3%
COc1cc2c(cc1OC)C(c1cc(OC)c(O)c(OC)c1)CC(=O)N2 (stereo not drawn) | inactive: 9.96%
CC1CCCN(Cc2c(O)ccc3c(=O)c(-c4ccc(Cl)cc4)c(C(F)(F)F)oc23)C1 (stereo not drawn) | inactive: -18.3%
Cc1ccc(OCc2cc(=O)n3cc(C)sc3n2)c(C)c1 | inactive: -16.6%
COc1ccc(S(=O)(=O)c2cn(C)c3cc(N4CCOCC4)c(F)cc3c2=O)cc1 | inactive: -6.34%
COC(=O)CC1Oc2ccc(Cl)cc2-n2cc(-c3ccc(F)cc3)nc21 (stereo not drawn) | inactive: 18%
O=C(COc1ccccc1)Nc1c(Cl)ccc2nsnc12 | inactive: 43.7%
CCc1ccc(OCC(=O)Nc2ccc(Cl)c(-c3nc4ncccc4o3)c2)cc1 | active: 118%
CCc1ccc(OCC(=O)Nc2ccc3oc(-c4ccc(OC)cc4)nc3c2)cc1 | inactive: 10.5%
CC(=O)N1CCc2cc(S(=O)(=O)N3CCN(c4ccc(C)cc4)C(C)C3)ccc21 (stereo not drawn) | inactive: 6.58%
CCOc1ccc(S(=O)(=O)NCC(c2cccs2)S(=O)(=O)c2ccc(C)cc2)cc1 (stereo not drawn) | inactive: -21.6%
CCN1CCN(C(=O)c2c(C)nn(-c3ccc(F)cc3)c2-n2cccc2)CC1 | inactive: 6.86%
CC(C)(C)NC(=O)CCSc1nc(-c2ccc3c(c2)OCO3)cc(C(F)(F)F)n1 | inactive: -1.2%
Cc1cc(-c2nc3ncccc3o2)ccc1NC(=O)COc1cc(C)c(Cl)c(C)c1 | inactive: 7.74%
CCC(C(=O)NCCc1cc(OC)ccc1OC)n1nc(C)c2sc3ccccc3c2c1=O (stereo not drawn) | inactive: -20.8%
Cc1c(C(=O)OCCOc2ccccc2)[nH]c2c1C(=O)CC(c1ccccc1Cl)C2 (stereo not drawn) | inactive: -17.1%
CCOC(=O)c1cccc(NC(=O)c2nn(-c3ccc(OC)cc3)c(=O)c3c2c2ccccc2n3C)c1 | inactive: -13.2%
CN(Cc1ccccc1)c1ccc(-c2nc(-c3cccnc3)no2)cc1[N+](=O)[O-] | inactive: 0%
CCN(Cc1ccccc1)S(=O)(=O)c1ccc2[nH]c3c(c2c1)CCCCC3 | inactive: 32.9%
Cc1ccc(C)c(NC(=O)CSc2nc(-c3ccccc3Cl)nc3c2Cc2c(CO)cnc(C)c2O3)c1 | inactive: -27.4%
CCOC(=O)c1cnc2nc(NCc3ccc(OCC)cc3)[nH]n2c1=O | inactive: -5.09%
CCCCOc1ccc(C(=O)NCCc2csc(-c3ccc(OC)cc3)n2)cc1 | inactive: -2.32%
CN(C)c1ccc(CNC(=O)c2cccn2-c2nnc(N3CCCCC3)s2)cc1 | inactive: -15.9%
O=C(NCc1ccc(F)cc1)C(=O)NCC(c1cccs1)S(=O)(=O)c1cccs1 (stereo not drawn) | inactive: -9.75%
COc1cccc(C(=O)NCCN2CCN(c3ccc(Cl)cc3)CC2)c1 | inactive: -0.119%
Cc1ccc(C)c(NC(=O)Nc2csc3c2CCCC3)c1 | inactive: -9.42%
COc1ccccc1NC(=O)Cn1c(=O)n(Cc2nc(-c3ccccc3)no2)c(=O)c2ccccc21 | inactive: 9.72%

SMILES | activation
CCOc1ccc2nc(N3CCCC(C(=O)NCc4ccc(C)cc4)C3)sc2c1 (stereo not drawn) | inactive: -5.4%
CC(C)NC(=O)C1CCN(C(=O)N2CC(C)Oc3ccccc32)CC1 (stereo not drawn) | inactive: -7.66%
CCC1=C(c2ccc(C)cc2)S(=O)(=O)N=C1N1CCC(C(=O)N2CCCCC2)CC1 | inactive: 5.37%
COc1ccc(NC(=O)Cn2cc(C(=O)c3cccs3)c3ccccc32)cc1 | inactive: -12%
O=C(COCc1cc(-c2cccs2)on1)Nc1cccc(O)c1 | inactive: -4.61%
CCS(=O)(=O)NCCc1csc2nc(-c3ccc(C)cc3)nn12 | inactive: 1.26%
Cc1ccc(-n2cnc3cc(C(=O)NC4CCCCCC4)ccc32)cc1Cl | inactive: -9.64%
Cc1cccc(-n2c(-c3ccco3)nc3c(cnn3-c3ccc(F)cc3)c2=O)c1 | inactive: 21.5%
COC(=O)c1c(C)sc(-c2c(-c3ccc4c(c3)OCCO4)[nH]c3c2c(=O)[nH]c(=O)n3C)c1O | inactive: -37.6%
COc1ccc(-c2nn(C)c3sc(C(=O)N4CCN(c5cccc(Cl)c5)CC4)cc23)cc1OC | inactive: -16.1%
CC1CCc2c(sc(NC(=O)c3cc(-c4ccc(Br)cc4)on3)c2C(N)=O)C1 (stereo not drawn) | inactive: 12.4%
COc1ccc(NC(=O)C2CCN(S(=O)(=O)c3c(C)noc3/C=C/c3ccc(C)cc3)CC2)cc1Cl | inactive: 15.6%
COc1ccc(NC(=O)CN(C)S(=O)(=O)c2ccc3nc(C)sc3c2)cc1 | inactive: -10.5%
COc1ccc(N2C(=O)CS(=O)(=O)C23C(=O)N(Cc2c(F)cccc2Cl)c2ccccc23)cc1 (stereo not drawn) | inactive: 10.7%
CC(C)CCNC(=O)c1cc(Sc2ccc(F)cc2F)nc2ccccc12 | inactive: -12.9%
COc1ccc(NC(=O)C2=C(C)Nc3ncnn3C2c2ccccn2)cc1 (stereo not drawn) | inactive: 2.35%
CCCCn1cc(S(=O)(=O)c2ccccc2)c(=O)c2cc(F)c(N3CCC(C)CC3)cc21 | inactive: -9.15%
CCOC(=O)c1cnc2c(C)cc(C)cc2c1Nc1ccc(OCc2ccccc2)cc1 | inactive: 7.45%
CCOC(=O)C1=C(C(F)(F)F)Nc2ncnn2C1c1cccc(OC)c1OC (stereo not drawn) | inactive: -2.56%
O=C(CN1CCN(CC(=O)Nc2ccccc2F)CC1)Nc1ccc(Cl)c(C(F)(F)F)c1 | inactive: 31%
CCCOc1ccccc1-c1nc2n[nH]nc2c(=O)[nH]1 | inactive: 17.1% and inactive: 3.15%
CCOc1ccc(CNC(=O)CCc2cn(CC)c3ccccc23)cc1 | inactive: -13.7%
CC1=C(c2ccc(C)c(C)c2)S(=O)(=O)N=C1N1CCC(C(=O)N2CCCCC2)CC1 | inactive: 7.16%
COc1cc(C(=O)Nc2ccc(OCc3cc(=O)n4cccc(C)c4n3)cc2)cc(OC)c1OC | inactive: 27.9%
O=C(NCCc1ccccc1)c1ccc(CSc2nc3ccncc3n2Cc2cccc(F)c2)cc1 | inactive: -21.7%
CCc1ccc(NC(=O)C2CCN(S(=O)(=O)c3c(C)noc3/C=C\c3ccc(OC)cc3)CC2)cc1 | inactive: -22.1%
